The campaign covered roughly 310,000 compounds. About 14,000 (4.5%) showed an effect of 50% or more. The effect is printed as a negative number. Some of the results follow.
target: human ether-à-go-go-related gene (hERG) potassium channel (human, UniProt Q12809); experiment: primary screen, population patch clamp on CHO cells stably expressing hERG
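Also: peak tail current of the secondary pulse compared with the same well before compound.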

Sequence of human ether-à-go-go-related gene (hERG) potassium channel (Q12809 whole entry, looked up): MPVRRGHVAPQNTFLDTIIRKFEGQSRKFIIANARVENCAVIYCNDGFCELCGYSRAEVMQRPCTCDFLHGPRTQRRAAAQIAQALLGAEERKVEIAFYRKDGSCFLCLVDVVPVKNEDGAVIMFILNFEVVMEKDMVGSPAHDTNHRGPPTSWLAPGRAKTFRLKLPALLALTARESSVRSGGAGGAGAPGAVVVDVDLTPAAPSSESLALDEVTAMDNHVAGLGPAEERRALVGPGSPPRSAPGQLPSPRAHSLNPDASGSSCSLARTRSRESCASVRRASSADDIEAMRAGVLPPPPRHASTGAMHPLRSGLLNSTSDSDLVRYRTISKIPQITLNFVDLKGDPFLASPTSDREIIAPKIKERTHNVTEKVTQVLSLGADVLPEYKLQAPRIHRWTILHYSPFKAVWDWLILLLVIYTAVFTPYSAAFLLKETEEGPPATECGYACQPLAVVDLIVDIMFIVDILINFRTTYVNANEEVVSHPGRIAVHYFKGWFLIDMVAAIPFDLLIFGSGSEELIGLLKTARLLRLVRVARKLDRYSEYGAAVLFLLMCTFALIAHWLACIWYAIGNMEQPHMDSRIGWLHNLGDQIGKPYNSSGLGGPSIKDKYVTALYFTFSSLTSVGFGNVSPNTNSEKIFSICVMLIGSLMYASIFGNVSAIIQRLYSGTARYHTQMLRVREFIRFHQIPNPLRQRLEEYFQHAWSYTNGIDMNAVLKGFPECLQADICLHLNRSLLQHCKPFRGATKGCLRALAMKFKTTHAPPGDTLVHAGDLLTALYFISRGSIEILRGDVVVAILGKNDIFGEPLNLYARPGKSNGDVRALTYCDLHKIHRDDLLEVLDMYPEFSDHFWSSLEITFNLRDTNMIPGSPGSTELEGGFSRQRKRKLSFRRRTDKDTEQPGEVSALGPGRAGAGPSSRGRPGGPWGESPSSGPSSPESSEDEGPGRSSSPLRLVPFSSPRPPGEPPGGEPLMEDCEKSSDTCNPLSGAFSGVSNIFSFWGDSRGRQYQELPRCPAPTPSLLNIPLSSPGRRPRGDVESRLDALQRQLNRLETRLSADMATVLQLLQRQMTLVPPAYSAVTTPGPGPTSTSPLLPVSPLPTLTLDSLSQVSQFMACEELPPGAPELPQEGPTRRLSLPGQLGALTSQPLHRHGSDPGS

| SMILES | hERG current change (%, negative = inhibition) at 10uM [%] |
| --- | --- |
| COc1ccc(S(=O)(=O)Nc2cccc(C)n2)c2ccccc12 | -1.83 |
| Cc1cccc(C)c1NC(=O)COC(=O)c1ccc(N2CCCC2)c([N+](=O)[O-])c1 | -1.93 |
| COc1cc(/C=C2/SC(=O)NC2=O)ccc1OCc1ccccc1 | 17.9 |
| Cc1ccc(S(=O)(=O)N[C@H](C(=O)N2CCC3(O)CCCCC3C2)c2ccccc2)cc1 (stereo partly shown) | -9.4 |
| Cc1ccccc1OCC(=O)OCC(=O)NCCc1ccccc1 | 14.1 |
| COc1cc(C#N)ccc1OC(=O)C1CCN(C(=O)c2ccc(F)cc2)CC1 | -23.9 |
| COCCNC(=O)c1cc(-c2ccccn2)nc2ccc(S(=O)(=O)N3CCC(C)CC3)cc12 | -61.8 |
| O=C(CNC(=O)N1CC(=O)Nc2ccccc21)Nc1cc(Cl)ccc1Cl | -1.78 |
| O=C(NC(Cc1ccccc1)C(=O)O)/C(=C/c1ccc(Br)cc1)NC(=O)c1ccc(Br)o1 (stereo not shown) | 10.4 |
| Cc1c(Cl)cccc1NC(=O)C1=COCCO1 | 10.6 |
| CSCCC(NC(=O)COc1ccccc1)C(=O)OCc1ccc([N+](=O)[O-])cc1 (stereo not shown) | -70.8 |
| O=C(CCC(=O)OCc1ccc(Cl)cc1)Nc1ccccc1 | -2.43 |
| COc1ccc(CCNC(=O)N2CCOCC2)cc1 | 3.45 |
| NS(=O)(=O)c1cccc(NC(=O)CSc2ncnc3ccccc23)c1 | -3.55 |
| COc1ccc2[nH]c(C(=O)O)c(CCN3C(=O)c4ccc(C(=O)O)cc4C3=O)c2c1 | 14.6 |
| CCc1ccccc1NC(=O)N1CCCC(CCC(=O)N(C)CCc2ccccn2)C1 (stereo not shown) | 13.1 |
| CCn1c(SCC(=O)C(C)(C)C)nnc1-c1cnccn1 | -4.47 |
| COc1ccc(C(=O)CCC(=O)Nc2ccc(Cl)cc2)cc1 | 11.2 |
| COc1ccc(C(=O)NC(C(=O)NCC2(N3CCCCC3)CCCCC2)C(C)C)cc1 (stereo not shown) | -4.21 |
| CCS(=O)(=O)N1CCCC(C(=O)N2CCc3ccccc3C2)C1 (stereo not shown) | -6.95 |
| CCOC(=O)N1CCN(C(=O)c2ccc3c(c2)N(Cc2cccc(Cl)c2)C(=O)c2ccccc2S3=O)CC1 (stereo not shown) | -9.54 |
| Cc1nc(SCC(=O)N2CCOCC2)c2c(=O)n(C)c(=O)n(C)c2n1 | 0.699 |
| CCNC(=S)N1CCN=C1Nc1nc(C)cc(C)n1 | -3.67 |
| COc1ccccc1C(=O)NNC(=S)NC(=O)c1cccs1 | 21.9 |
| CCOC(=O)c1c(CN2CCC(C)CC2)oc2ccc(OC)cc12 | -51.2 |
| CC(=O)N1C(=O)C(=C2C=C(C)OC(C)=C2)c2ccccc21 | -8.12 |
| O=C1OCc2cc(N=Nc3c(O)[nH]c(=O)[nH]c3=O)ccc21 | 11.8 |
| CCc1ccc(CN(C)CC(=O)Nc2ccc3c(c2)CCC3)cc1 | 9.39 |

| SMILES | hERG current change (%, negative = inhibition) at 10uM [%] |
| --- | --- |
| O=[N+]([O-])c1cc(Cl)ccc1NCCNS(=O)(=O)c1ccccc1 | -5.56 |
| CCC1(C)Cc2ccccc2-c2nc(NCCCO)n(-c3ccccc3)c(=O)c21 (stereo not shown) | -48.6 |
| CCNS(=O)(=O)c1ccc(CCC(=O)NCCC2=CCCCC2)cc1 | -23.6 |
| N#C/C(=C\c1ccco1)C(=O)Nc1cccc2ncccc12 | 3.61 |
| CN(C(=O)c1ccc2c(c1)OCCO2)c1c(N)n(Cc2ccccc2)c(=O)[nH]c1=O | 2.18 |
| CCN(CC(=O)NCc1ccc(Cl)cc1)C(=O)/C=C/c1ccc(C#N)cc1 | -62 |
| COc1ccc2[nH]c(=O)c(CNc3ccccc3)cc2c1 | 11.3 |
| Cc1nc2nc[nH]n2c(=O)c1C/C=C/c1ccccc1 | 15.8 |
| O=C(CN1CCN(Cc2ccccc2)CC1)Nc1cccc(S(=O)(=O)N2CCCCCC2)c1 | -76.3 |
| O=C(NC(=S)N1CCN(c2ccccn2)CC1)c1ccco1 | 20.2 |
| CCOC(=O)c1c(NC(=O)c2cc(-c3cccc(O)c3)on2)sc(C(C)=O)c1C | 21.7 |
| CCc1ccc(N2CC(C(=O)NCCC3=CCCCC3)CC2=O)cc1 (stereo not shown) | 7.08 |
| CCOC(=O)C1CCN(C(=O)COc2cccc(C)c2)CC1 | -2.48 |
| CC(C)c1cc(NCC2CCCO2)n2c(nc3ccccc32)c1C#N (stereo not shown) | -41 |
| Cc1cc(C)c(-c2csc(NC(=O)/C=C/c3cccs3)n2)c(C)c1 | -3.06 |
| Cc1cc(Oc2ccc(=O)n(C)n2)nc(Oc2ccc(=O)n(C)n2)n1 | -0.695 |
| O=C(Nc1ccccc1C(=O)N1CCOCC1)c1ccncc1 | 3.42 |
| CC(=O)Nc1ccc(S(=O)(=O)NNC(=O)COc2cc(C)ccc2C(C)C)cc1 | 8.27 |
| Fc1ccc(Cn2nnnc2C(c2ccc(Cl)cc2)N2CC=C(c3ccc(F)cc3)CC2)cc1 (stereo not shown) | 10.1 |
| Cc1ccc(CNC(=O)C2CC(=O)N(CCC(C)C)C2)cc1 (stereo not shown) | 7.87 |
| O=S(=O)(NCc1ccc(F)cc1)c1cc(Br)ccc1Br | -5.58 |
| Cc1ccc(Nc2nc(N)nc(CSc3nnc(-c4ccncc4)o3)n2)cc1 | 2.59 |
| N/C(=N\OC(=O)CC1CCCCC1)c1ccc(Cl)cc1 | 15.4 |
| O=C(c1ccco1)N(Cc1nc2ccccc2c(=O)[nH]1)C1CCCC1 | -8.35 |
| CC/C(=N\Nc1ccc([N+](=O)[O-])cc1)c1ccccc1 | 3.48 |
| Cc1cccc(N2CCN(C(=O)Cn3sc4nc(C)cc(C)c4c3=O)CC2C)c1 (stereo not shown) | -2.48 |
| C#CCOCCOCCOCCNc1nc(N2CCN(C(=O)Cn3cc(CC(C)O)nn3)CC2)nc(N2CCN(C(=O)Cn3cc(CC(C)O)nn3)CC2)n1 (stereo not shown) | -7.58 |

— paper PMC4336329 (PLoS ONE, 2015)
